From the supplement of paper PMC3334620
Whole data set: some 33,000 sequences, median “E-score (-0.5 to 0.5)” near -0.043, cut for the highest 2% near 0.37. Some of the results follow.

biological target: T1, Upc2 (UniProt Q12151); test: PBM E-score (8-mer binding enrichment) (E-score (-0.5 to 0.5)); higher = stronger / more preferred TF binding; most listed sequences are background and not binding sites; conditions: protein concentration: 200 nM; construct: GST-full length
T1 sequence: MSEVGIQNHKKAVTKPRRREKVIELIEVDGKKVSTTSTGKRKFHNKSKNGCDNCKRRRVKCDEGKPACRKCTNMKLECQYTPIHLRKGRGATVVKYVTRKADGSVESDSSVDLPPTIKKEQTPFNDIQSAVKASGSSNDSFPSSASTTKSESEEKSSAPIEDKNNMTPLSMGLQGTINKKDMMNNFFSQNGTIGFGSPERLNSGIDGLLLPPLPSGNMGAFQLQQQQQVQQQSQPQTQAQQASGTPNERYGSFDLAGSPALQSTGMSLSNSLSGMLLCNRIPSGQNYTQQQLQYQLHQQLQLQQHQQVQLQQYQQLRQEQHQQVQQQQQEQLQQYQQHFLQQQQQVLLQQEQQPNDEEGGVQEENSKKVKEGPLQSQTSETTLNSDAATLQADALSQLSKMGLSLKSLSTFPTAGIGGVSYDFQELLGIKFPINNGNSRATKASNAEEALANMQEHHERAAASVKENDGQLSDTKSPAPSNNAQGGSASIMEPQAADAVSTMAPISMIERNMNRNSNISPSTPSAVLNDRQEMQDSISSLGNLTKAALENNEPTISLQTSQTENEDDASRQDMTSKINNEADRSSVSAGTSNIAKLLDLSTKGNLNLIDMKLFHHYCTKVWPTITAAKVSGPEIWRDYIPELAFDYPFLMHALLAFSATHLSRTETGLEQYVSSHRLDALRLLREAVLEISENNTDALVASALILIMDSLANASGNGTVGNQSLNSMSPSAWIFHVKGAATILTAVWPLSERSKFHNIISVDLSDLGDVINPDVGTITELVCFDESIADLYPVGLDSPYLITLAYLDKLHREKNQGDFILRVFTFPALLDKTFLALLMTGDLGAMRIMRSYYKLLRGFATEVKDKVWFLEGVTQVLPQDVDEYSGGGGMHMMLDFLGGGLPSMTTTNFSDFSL
How it was run: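 Masliner-normalised scans of fluorescent anti-GST signal were the basis for scoring. That signal came from GST-tagged yeast transcription factors applied at about 100-200 nM to double-stranded universal all-10-mer Agilent arrays on fresh or once-stripped slides. Each ungapped eight-base word, pooled with its reverse complement, received an E-score from the Universal PBM Analysis Suite.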

| Sequence | PBM E-score |
| --- | --- |
| AAGCTCTC | -0.171 |
| AGTGGGGA | -0.152 |
| ATATATAA | 0.141 |
| AAATTGAC | 0.0644 |
| CCTTTTAG | -0.0261 |
| CCCGTATA | 0.479 |
| ATGTCTCA | -0.192 |
| ATATTTTG | -0.102 |
| ACTGTGTA | 0.0766 |
| AGTTACTC | 0.142 |
| ACGCTATA | 0.257 |
| GCTGTGTA | 0.00184 |
| CTCTAAGC | 0.0282 |
| ACAAAGAC | 0.0593 |
| CATAGGGA | -0.434 |
| CCCCCTCA | -0.388 |
| ATGCGAGC | 0.304 |
| ACTCTGCT | -0.118 |
| CCACACTC | -0.0668 |
| GCACGTAC | 0.227 |
| ACACTTTC | -0.044 |
| ATACAAAA | 0.0979 |
| CATCAGTC | -0.123 |
| ACCTAGGC | -0.352 |
| ACCCCAAC | -0.236 |

| Sequence | PBM E-score |
| --- | --- |
| ACGCAGTG | 0.0743 |
| ACGTGGAT | 0.162 |
| CCGAATAG | 0.00943 |
| AGATTGCG | 0.0197 |
| GCGCGCTA | 0.151 |
| GTATCTCA | 0.101 |
| CACCGTCA | -0.0762 |
| GGTCGAAC | 0.00809 |
| AAGGTCGA | -0.00412 |
| GGTAGTAA | 0.0105 |
| CCACAACG | 0.105 |
| TATCCGGA | 0.0472 |
| GCCGTAAA | 0.385 |
| CCGGGGCG | -0.0612 |
| CAATCGTG | -0.153 |
| CATCCACG | -0.102 |
| GCCATGCA | -0.206 |
| ATTCTTTA | 0.157 |
| CAGAGCTG | -0.317 |
| AATCAGAC | -0.0696 |
| CTGGGAAA | -0.185 |
| AGTCATAA | 0.0313 |
| GGAGAAAA | -0.0493 |
| AGATGACA | -0.218 |
| TCATCTAA | 0.0297 |

| Sequence | PBM E-score |
| --- | --- |
| TCAGAAGA | -0.0991 |
| GTCTAGTA | -2e-05 |
| ATGGCTGC | 0.0303 |
| ACTAGTTA | 0.0543 |
| ACGGAACG | 0.359 |
| CCTAATAC | -0.066 |
| CAGTGGCC | -0.231 |
| CCCCTTGC | -0.172 |
| CAAATAGC | -0.0463 |
| CTCCTGTA | -0.02 |
| ACGACCGC | 0.359 |
| CTTATAAA | 0.125 |
| CGCAAACA | 0.0866 |
| AGCTTCAT | -0.0456 |
| CCATATCA | -0.0248 |
| CGACCCGC | 0.0304 |
| ACGCCTGG | -0.026 |
| GTTTTTTA | 0.054 |
| CGGGCAAC | -0.0496 |
| GTACCACA | 0.178 |
| CATAATAG | -0.071 |
| AACTTTAC | 0.0923 |
| ATGCACCA | -0.188 |
| AAGCGAAT | 0.298 |
| CCGGTAGG | -0.188 |

| Sequence | PBM E-score |
| --- | --- |
| GCTTCTCA | -0.146 |
| CACTCGGC | 0.0986 |
| AGTCTTTC | -0.0324 |
| CCTCGGGA | 0.0787 |
| AACTACTC | -0.0349 |
| ATAAATGA | 0.0703 |
| CGCGTCCA | 0.109 |
| GGATACCC | 0.0221 |
| CGCCTTTC | 0.014 |
| CCGAGTCC | -0.0483 |
| AAGATGCA | -0.17 |
| TAATTGAA | -0.138 |
| AGACGAAA | 0.196 |
| CCAGCGCC | 0.0578 |
| AATCCCAT | -0.229 |
| GATCCCGC | -0.037 |
| CGAGATCG | 0.207 |
| GCGGCCTA | -0.197 |
| AACAAGAG | -0.113 |
| CATGCCAC | -0.154 |
| AAAATTAA | -0.0345 |
| CTTTCACA | -0.0433 |
| TACGTGAA | 0.282 |
| CTAAGGGA | 0.0198 |
| AGCGGTCC | -0.127 |

| Sequence | PBM E-score |
| --- | --- |
| AATGCCTG | -0.12 |
| CTACTCAG | -0.28 |
| AGACATAT | -0.0472 |
| CACTCGTC | 0.0141 |
| GAACTACA | -0.0134 |
| GTGATCCA | -0.191 |
| AAAGCCGG | 0.00256 |
| CCCGACGG | 0.0878 |
| ATAAGTTC | 0.00948 |
| TATCGCCA | -0.105 |
| CATCACAA | 0.0119 |
| TATCGACA | 0.0753 |
| ACAAGTCT | -0.254 |
| GCCCTTAA | 0.0503 |
| GAAGGGTC | -0.129 |
| AGCGGCGC | -0.193 |
| CGACATCA | 0.137 |
| GGGAGCCA | -0.222 |
| AGATAGTA | -0.0283 |
| ATCAGTCA | 0.0344 |
| ATGAACTC | -0.154 |
| CTCTTAGC | -0.0328 |
| GAATAACA | 0.096 |
| AGGTTTGG | -0.0777 |
| ACAAGTCC | -0.257 |

| Sequence | PBM E-score |
| --- | --- |
| ATCTAGAT | 0.0266 |
| CAGTGCCA | -0.161 |
| ACCGGAGT | 0.0153 |
| GGCTTTAC | 0.234 |
| AGGAGAAA | -0.271 |
| CTCTATGA | -0.181 |
| AAATTGCG | 0.219 |
| AATAGACA | -0.187 |
| GACCACTA | -0.152 |
| GTGTACAA | 0.0763 |
| GAACGGTC | 0.249 |
| TCTTTTCA | -0.155 |
| ACGCTCCC | -0.175 |
| AAGCCATA | -0.0666 |
| CTATGTAC | 0.131 |
| GAGACGGC | -0.0958 |
| CGGCACCA | -0.0913 |
| GATTAAGA | 0.0715 |
| AATACCAA | -0.146 |
| GGATCAGA | -0.208 |
| AACTAATC | 0.0158 |
| ATTACCAC | -0.0842 |
| AGGAAAAT | -0.0665 |
| AATATATC | -0.0702 |
| GAAGCTTA | 0.178 |

| Sequence | PBM E-score |
| --- | --- |
| AACTGACA | -0.152 |
| CTATCATC | -0.0784 |
| ACTGAGGG | -0.24 |
| CGGTCCAA | -0.129 |
| ATAAAGCA | -0.244 |
| ATATCAAG | -0.00177 |
| CATACAGG | -0.117 |
| AGATGTAA | -0.0449 |
| CCCCTGAG | -0.139 |
| AATCGTTA | 0.292 |
| TCCACGGA | -0.137 |
| ATATGCCC | -0.307 |
| AGGAACTA | -0.0131 |
| ATGCCAGG | -0.193 |
| ATAGGAAG | -0.0435 |
| CGTGATCA | -0.083 |
| ATCATGGC | -0.177 |
| ACATGTCG | 0.0614 |
| GGCGCTGA | -0.342 |
| AGTCGTCC | -0.111 |
| ACTGCCAC | -0.119 |
| AAGCATAC | 0.173 |
| GTTTTCAA | 0.123 |
| GGAGCATA | 0.0122 |
| CCGCCACG | -0.103 |

| Sequence | PBM E-score |
| --- | --- |
| CACCGTTC | 0.28 |
| ACTATGGG | -0.149 |
| ACTTGGTC | 0.0342 |
| GGGTGCAA | -0.143 |
| TAAAGATA | 0.126 |
| GGGAAAGA | -0.12 |
| GTCAATGA | -0.239 |
| CTGAGATA | -0.0826 |
| ACTGAGCT | -0.195 |
| AAAGACTT | 0.0234 |
| CAAGGCGC | -0.243 |
| AAAATGCG | 0.256 |
| TAGTAAAA | 0.0664 |
| ATCAAGTA | -0.174 |
| CCATACGA | 0.473 |
| ACAATCTG | -0.262 |
| AGTATGTA | 0.0299 |
| ACACCGGC | 0.0266 |
| CGACTGTA | 0.0412 |
| TATCCTAA | -0.0589 |
| AAGCAGTC | -0.0752 |
| CTTCACTA | -0.219 |
| ACGCTAGA | -0.146 |
| ACCGAGGA | 0.262 |
| TAGTGCCA | -0.208 |

| Sequence | PBM E-score |
| --- | --- |
| GATGACCC | -0.172 |
| ACTCGAAC | 0.119 |
| AGACTGCG | -0.17 |
| CCAGCTCC | -0.217 |
| GAATTGCA | -0.0427 |
| ATACCTAC | 0.0942 |
| GCTTGAGA | -0.146 |
| AGTACGGC | 0.299 |
| ATAGTTTA | 0.0556 |
| CTAGACGA | 0.24 |
| ACACCGGG | -0.2 |
| AGACTGGG | -0.146 |
| TATTCTGA | -0.073 |
| CTATGGAG | -0.173 |
| AAGTTTAC | 0.212 |
| GCTTCTAC | 0.0726 |
| AGCAATGG | -0.0752 |
| ATGGTGAG | -0.171 |
| GACCAGTC | -0.288 |
